# Data reported in the supplement of paper PMC8728848.
# The list shows a part of the results.
# B1: ECL (Erythrina cristagalli), Q6YD91 (protein)
# chain: VETISFSFSEFEPGNNDLTLQGAAIITQSGVLQLTKINQNGMPAWDSTGRTLYTKPVHIWDMTTGTVASFETRFSFSIEQPYTRPLPADGLVFFMGPTKSKPAQGYGYLGVFNNSKQDNSYQTLAVEFDTFSNPWDPPQVPHIGIDVNSIRSIKTQPFQLDNGQVANVVIKYDASSKILLAVLVYPSSGAIYTIAEIVDVKQVLPEWVDVGLSGATGAQRDAAETHDVYSWSFHASLPETND
# Columns and labels:
# Assay in all cases: glycan array binding signal (z-score within array); higher = stronger binding
# Conditions in all cases: glycan notation: IUPAC condensed, linker removed
# [1] = target: Gal(b1-3)GlcNAc(b1-6)[Gal(b1-3)]GalNAc
# In short: (§1)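 Glycan array data were curated from 3228 arrays in the Consortium for Functional Glycomics database and kept only where the protein sequence was available. Glycan names were converted to IUPAC-condensed notation, and columns mapping to the same glycan were averaged. The binding signal is a within-array Z-score, averaged across arrays of the same protein sequence at different concentrations or buffers and across linkers. Negative Z-scores can be read as non-binding.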
# Gal(b1-3)GlcNAc6S = target: Gal(b1-3)GlcNAc6S
# In short: as §1
# [2] = target: Gal(b1-3)[Fuc(a1-4)]GlcNAc
# In short: as §1
# [3] = target: Gal(b1-3)[Fuc(a1-4)]GlcNAc(b1-2)Man
# In short: as §1
# [4] = target: Gal(b1-3)[Fuc(a1-4)]GlcNAc(b1-2)Man(a1-3)[Gal(b1-3)[Fuc(a1-4)]GlcNAc(b1-2)Man(a1-6)]Man(b1-4)GlcNAc(b1-4)[Fuc(a1-6)]GlcNAc
# In short: as §1
# [5] = target: Gal(b1-3)[Fuc(a1-4)]GlcNAc(b1-3)Gal(b1-3)[Fuc(a1-4)]GlcNAc
# In short: as §1
# [6] = target: Gal(b1-3)[Fuc(a1-4)]GlcNAc(b1-3)Gal(b1-4)[Fuc(a1-3)]GlcNAc
# In short: as §1
# [7] = target: Gal(b1-3)[Fuc(a1-4)]GlcNAc(b1-6)GalNAc
# In short: as §1
# [8] = target: Gal(b1-3)[GlcNAc(b1-6)]GalNAc
# In short: as §1
# [9] = target: Gal(b1-3)[Neu5Ac(a2-6)]GalNAc
# In short: as §1
# [10] = target: Gal(b1-3)[Neu5Ac(a2-6)]GlcNAc(b1-4)Gal(b1-4)Glc
# In short: as §1
# [11] = target: Gal(b1-3)[Neu5Ac(b2-6)]GalNAc
# In short: as §1
# Gal(b1-4)Gal = target: Gal(b1-4)Gal
# In short: as §1
# [12] = target: Gal(b1-4)GalNAc(a1-3)[Fuc(a1-2)]Gal(b1-4)GlcNAc
# In short: as §1
# [13] = target: Gal(b1-4)GalNAc(b1-3)[Fuc(a1-2)]Gal(b1-4)GlcNAc
# In short: as §1
# Gal(b1-4)Glc = target: Gal(b1-4)Glc
# In short: as §1
# Gal(b1-4)Glc6S = target: Gal(b1-4)Glc6S
# In short: as §1
# Gal(b1-4)GlcNAc = target: Gal(b1-4)GlcNAc
# In short: as §1
# [14] = target: Gal(b1-4)GlcNAc(a1-6)Gal(b1-4)GlcNAc
# In short: as §1
# Gal(b1-4)GlcNAc(b1-2)Man = target: Gal(b1-4)GlcNAc(b1-2)Man
# In short: as §1
# [15] = target: Gal(b1-4)GlcNAc(b1-2)Man(a1-3)Man(b1-4)GlcNAc(b1-4)GlcNAc
# In short: as §1
# [16] = target: Gal(b1-4)GlcNAc(b1-2)Man(a1-3)[Gal(b1-4)GlcNAc(b1-2)Man(a1-6)]Man(b1-4)GlcNAc(b1-4)GlcNAc
# In short: as §1
# [17] = target: Gal(b1-4)GlcNAc(b1-2)Man(a1-3)[Gal(b1-4)GlcNAc(b1-2)Man(a1-6)]Man(b1-4)GlcNAc(b1-4)[Fuc(a1-6)]GlcNAc
# In short: as §1
# [18] = target: Gal(b1-4)GlcNAc(b1-2)Man(a1-3)[Gal(b1-4)GlcNAc(b1-2)Man(a1-6)][Gal(b1-4)GlcNAc(b1-4)]Man(b1-4)GlcNAc(b1-4)[Fuc(a1-6)]GlcNAc
# In short: as §1
# [19] = target: Gal(b1-4)GlcNAc(b1-2)Man(a1-3)[Gal(b1-4)GlcNAc(b1-2)Man(a1-6)][GlcNAc(b1-4)]Man(b1-4)GlcNAc(b1-4)[Fuc(a1-6)]GlcNAc
# In short: as §1
# [20] = target: Gal(b1-4)GlcNAc(b1-2)Man(a1-3)[GlcNAc(b1-2)Man(a1-6)]Man(b1-4)GlcNAc(b1-4)GlcNAc
# In short: as §1
# [21] = target: Gal(b1-4)GlcNAc(b1-2)Man(a1-3)[GlcNAc(b1-4)][Gal(b1-4)GlcNAc(b1-2)Man(a1-6)]Man(b1-4)GlcNAc(b1-4)GlcNAc
# In short: as §1
# [22] = target: Gal(b1-4)GlcNAc(b1-2)Man(a1-3)[Man(a1-6)]Man(b1-4)GlcNAc(b1-4)GlcNAc
# In short: as §1
# [23] = target: Gal(b1-4)GlcNAc(b1-2)Man(a1-6)Man(b1-4)GlcNAc(b1-4)GlcNAc
# In short: as §1
# [24] = target: Gal(b1-4)GlcNAc(b1-2)Man(a1-6)[GlcNAc(b1-2)Man(a1-3)]Man(b1-4)GlcNAc(b1-4)GlcNAc
# In short: as §1
# [25] = target: Gal(b1-4)GlcNAc(b1-2)Man(a1-6)[Man(a1-3)]Man(b1-4)GlcNAc(b1-4)GlcNAc
# In short: as §1
# [26] = target: Gal(b1-4)GlcNAc(b1-2)[Gal(b1-4)GlcNAc(b1-4)]Man(a1-3)[Gal(b1-4)GlcNAc(b1-2)Man(a1-6)]Man(b1-4)GlcNAc(b1-4)GlcNAc
# In short: as §1
# [27] = target: Gal(b1-4)GlcNAc(b1-2)[Gal(b1-4)GlcNAc(b1-4)]Man(a1-3)[Gal(b1-4)GlcNAc(b1-2)[Gal(b1-4)GlcNAc(b1-6)]Man(a1-6)]Man(b1-4)GlcNAc(b1-4)GlcNAc
# In short: as §1
# [28] = target: Gal(b1-4)GlcNAc(b1-2)[Gal(b1-4)GlcNAc(b1-4)]Man(a1-3)[GlcNAc(b1-4)][Gal(b1-4)GlcNAc(b1-2)Man(a1-6)]Man(b1-4)GlcNAc(b1-4)GlcNAc
# In short: as §1
# [29] = target: Gal(b1-4)GlcNAc(b1-2)[Gal(b1-4)GlcNAc(b1-4)]Man(a1-3)[GlcNAc(b1-4)][Gal(b1-4)GlcNAc(b1-2)[Gal(b1-4)GlcNAc(b1-6)]Man(a1-6)]Man(b1-4)GlcNAc(b1-4)GlcNAc
# In short: as §1
# [30] = target: Gal(b1-4)GlcNAc(b1-2)[Gal(b1-4)GlcNAc(b1-6)]Man(a1-6)[Gal(b1-4)GlcNAc(b1-2)Man(a1-3)]Man(b1-4)GlcNAc(b1-4)GlcNAc
# In short: as §1
# [31] = target: Gal(b1-4)GlcNAc(b1-2)[Gal(b1-4)GlcNAc(b1-6)]Man(a1-6)[Gal(b1-4)GlcNAc(b1-2)Man(a1-3)]Man(b1-4)GlcNAc(b1-4)[Fuc(a1-6)]GlcNAc
# In short: as §1
binder,measurement,setting,value
B1,glycan array binding signal (z-score),[1],-0.221
same,glycan array binding signal (z-score),Gal(b1-3)GlcNAc6S,-0.554
same,glycan array binding signal (z-score),[2],-0.281
same,glycan array binding signal (z-score),[3],-0.18
same,glycan array binding signal (z-score),[4],0.29
same,glycan array binding signal (z-score),[5],-0.349
same,glycan array binding signal (z-score),[6],-0.248
same,glycan array binding signal (z-score),[7],0.041
same,glycan array binding signal (z-score),[8],-0.279
same,glycan array binding signal (z-score),[9],-0.423
same,glycan array binding signal (z-score),[10],-0.373
same,glycan array binding signal (z-score),[11],-0.546
same,glycan array binding signal (z-score),Gal(b1-4)Gal,-0.086
same,glycan array binding signal (z-score),[12],-0.273
same,glycan array binding signal (z-score),[13],-0.355
same,glycan array binding signal (z-score),Gal(b1-4)Glc,-0.19
same,glycan array binding signal (z-score),Gal(b1-4)Glc6S,-0.156
same,glycan array binding signal (z-score),Gal(b1-4)GlcNAc,0.036
same,glycan array binding signal (z-score),[14],-0.195
same,glycan array binding signal (z-score),Gal(b1-4)GlcNAc(b1-2)Man,-0.311
same,glycan array binding signal (z-score),[15],0.144
same,glycan array binding signal (z-score),[16],0.745
same,glycan array binding signal (z-score),[17],0.114
same,glycan array binding signal (z-score),[18],2.23
same,glycan array binding signal (z-score),[19],1.56
same,glycan array binding signal (z-score),[20],0.18
same,glycan array binding signal (z-score),[21],0.248
same,glycan array binding signal (z-score),[22],0.069
same,glycan array binding signal (z-score),[23],-0.154
same,glycan array binding signal (z-score),[24],-0.136
same,glycan array binding signal (z-score),[25],0.021
same,glycan array binding signal (z-score),[26],3.21
same,glycan array binding signal (z-score),[27],4.03
same,glycan array binding signal (z-score),[28],0.663
same,glycan array binding signal (z-score),[29],1.79
same,glycan array binding signal (z-score),[30],1.65
same,glycan array binding signal (z-score),[31],5.09
